# Values joined by “and” are separate entries in the source; they are usually repeats but may differ in a detail not shown here. Identical values can stand only once. Counter-ions that a name gives are not always drawn. ± gives the standard deviation of the averaged measurements. The full ranking holds about 3,100 compounds; the median of “mean cytoplasmic OPP incorporation (global translation) relative to DMSO” is about 100, and the lowest 2% start at about 56. The list shows a part of the results.
# System: U2OS
# Assay: mean cytoplasmic OPP incorporation (global translation) relative to DMSO (% of DMSO); higher = more protein synthesis
# Conditions: 10 µM; 24 h
# Protocol: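 Primary image-based screen in U2OS cells: compounds at 10 uM for 24 h, then a 1 h o-propargyl-puromycin (OPP) pulse, click labelling, and high-throughput microscopy. Mean cytoplasmic OPP intensity and nuclei count were normalised to DMSO wells within each plate (DMSO = 100) and averaged over triplicate plates.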
row,SMILES,mean cytoplasmic OPP incorporation
1,CCc1cccc(CC)c1NC(=O)N1Cc2[nH]nc(NC(=O)c3ccc(N4CCN(C)CC4)cc3)c2C1,99.2
2,Nc1c(O)cc(O)cc1C=Cc1ccc(O)cc1 [Aminoresveratrol sulfate],100
3,Nc1nc(=O)n([C@@H]2CS[C@H](CO)O2)cc1F [(-)-Emtricitabine],105
4,COc1ccc(Cl)cc1C(=O)NCCc1ccc(S(=O)(=O)NC(=O)NC2CCCCC2)cc1 [Glyburide],105
5,COc1ccc(Cl)cc1C(=O)NCCc1ccc(S(=O)(=O)NC(=O)NC2CCCCC2)cc1 [Glibenclamide],98.68 ± 0.63
6,CCCOc1ccccc1-c1nc2[nH]nnc2c(=O)[nH]1 [Zaprinast],102 ± 3.2
7,CCCCCCNC(=O)n1cc(F)c(=O)[nH]c1=O [Carmofur],83.9
8,CCC[C@@H]1C[C@@H](C(=O)N[C@@H]([C@H]2O[C@H](SC)[C@H](OP(=O)(O)O)[C@@H](O)[C@H]2O)[C@H](C)Cl)N(C)C1 [Clindamycin phosphate],101
9,COC(=O)C1=CO[C@@H](O)[C@@H]2C(CO)=CC[C@H]12 [Genipin],99
10,Cc1nc(C(=O)NCC(=O)O)c(O)c2ccc(Oc3ccccc3)cc12,99.7
11,COc1cccc2c1C(=O)c1c(O)c3c(c(O)c1C2=O)C[C@@](O)(C(=O)CO)C[C@@H]3O[C@H]1C[C@H](N)[C@H](O[C@@H]2CCCCO2)[C@H](C)O1 [Pirarubicin],59.9
12,COc1cc2c(NC3CCN(C(C)C)CC3)nc(N3CCC(F)(F)CC3)nc2cc1OCCCN1CCCC1,63
13,COC(=O)N/N=C/c1c[n+]([O-])c2ccccc2[n+]1[O-] [Carbadox],98.6
14,CN(C(=O)CN(CCO)CC(=O)N(C)C(C)(C)Cc1ccccc1)C(C)(C)Cc1ccccc1 [Oxethazaine],120
15,Cc1cc(C)nc(NS(=O)(=O)c2ccc(N)cc2)n1 [Sulfamethazine],102
16,Cc1cc(C)nc(NS(=O)(=O)c2ccc(N)cc2)n1 [Sulfamethazine sodium salt],98.7
17,COc1cc(NS(=O)(=O)c2ccc(N)cc2)ncn1 [Sulfamonomethoxine],96.3
18,CCN(c1ccccc1)c1cc(=NC)n(C)c(C)n1,82.7
19,CC1(C)O[C@@H]2C[C@H]3[C@@H]4C[C@H](F)C5=CC(=O)C=C[C@]5(C)[C@@]4(F)[C@@H](O)C[C@]3(C)[C@]2(C(=O)CO)O1 [Fluocinolone acetonide],105
20,CC1(C)O[C@@H]2C[C@H]3[C@@H]4C[C@H](F)C5=CC(=O)C=C[C@]5(C)[C@@]4(F)[C@@H](O)C[C@]3(C)[C@]2(C(=O)CO)O1 [Fluocinolone acetonide (Flucort-N)],104
21,CC(C)[C@H](N)C(=O)OCCOCn1cnc2c(=O)nc(N)[nH]c21 [Valacyclovir hydrochloride],94.9
22,CN1CCN2c3ncccc3Cc3ccccc3C2C1 (stereo not drawn) [Mirtazapine],104
23,CN1CCN2c3ncccc3Cc3ccccc3C2C1 (stereo not drawn) [Mirtazepine],94.1
24,CC(C)N(CC[C@H](c1ccccc1)c1cc(CO)ccc1O)C(C)C,102

row,SMILES,mean cytoplasmic OPP incorporation
1,C[C@@H]1C/C=C/C=C/C=C/C=C/[C@H](O[C@@H]2O[C@H](C)[C@@H](O)[C@H](N)[C@@H]2O)C[C@@H]2O[C@](O)(C[C@@H](O)C[C@H]3O[C@@H]3/C=C/C(=O)O1)C[C@H](O)[C@H]2C(=O)O [Natamycin (Pimaricin)],102
2,CC(C(O)c1ccc(O)cc1)N1CCC(Cc2ccccc2)CC1 (stereo not drawn) [Ifenprodil tartrate],98.2
3,CC(C(O)c1ccc(O)cc1)N1CCC(Cc2ccccc2)CC1 (stereo not drawn) [Ifenprodil hemitartrate],97.8
4,CCCn1c(=O)c(C)cn2nc(N)nc12,104
5,"Cc1ccc(OCC(O)C(C)NC(C)C)c2c1CCC2 (stereo not drawn) [ICI-118,551 hydrochloride]",109
6,c1ccc2cc(C3=NCCN3)ncc2c1 [BU 226 hydrochloride],95.6
7,Nc1nc2c(cnn2CCc2ccccc2)c2nc(-c3ccco3)nn12,102
8,O=C(/C=C/c1cccc(S(=O)(=O)Nc2ccccc2)c1)NO [Belinostat (PXD101)],65.5
9,C=CCOc1ccccc1OCC(O)CNC(C)C (stereo not drawn) [Oxprenolol hydrochloride],110
10,NC[C@H]1O[C@H](O[C@H]2[C@H](O)[C@@H](O[C@H]3O[C@H](CO)[C@@H](O)[C@H](N)[C@H]3O)[C@H](N)C[C@@H]2N)[C@H](N)C[C@@H]1O [Tobramycin],99.2 ± 6.3
11,Cc1c(N)c(=O)n(-c2ccccc2)n1C [Ampyrone],79.7
12,CCOC(=O)/C=C(C)/C=C/C=C(C)/C=C/c1c(C)cc(OC)c(C)c1C [Etretinate],95.4
13,CC(C)(C)c1cc(NC(=O)Nc2ccc(-c3cn4c(n3)sc3cc(OCCN5CCOCC5)ccc34)cc2)no1 [Quizartinib (AC220)],124
14,CN1CCN(c2ccc(-c3cccc(CN4CCOCC4)c3)cc2NC(=O)c2c[nH]c(=O)cc2C(F)(F)F)CC1,111
15,N#C/C(=C(/N)Sc1ccc(N)cc1)c1ccccc1C(F)(F)F,121 and 97.2
16,COc1cc2nc(N3CCN(C(=O)C4COc5ccccc5O4)CC3)nc(N)c2cc1OC (stereo not drawn) [Doxazosin mesylate],114
17,O=c1c(O)c(-c2ccc(O)cc2)oc2cc(O)cc(O)c12 [Kaempferol],97.1
18,CCN(CC)C(=O)Nc1ccc(OCC(O)CNC(C)(C)C)c(C(C)=O)c1 (stereo not drawn) [Celiprolol HCl],99.6
19,CCCCC1C(=O)N(c2ccccc2)N(c2ccc(O)cc2)C1=O (stereo not drawn) [Oxyphenbutazone],69.3
20,N[C@H]1CONC1=O [(S)-(-)-Cycloserine],90.2
21,CNC(=O)c1ccc(N2C(=S)N(c3ccc(C#N)c(C(F)(F)F)c3)C(=O)C2(C)C)cc1F [MDV3100 (Enzalutamide)],107
22,COc1cc(OC)c(NC(=O)Nc2cc(C)on2)cc1Cl,103
23,CC#CCn1c(N2CCC[C@@H](N)C2)nc2c1c(=O)n(Cc1nc(C)c3ccccc3n1)c(=O)n2C [Linagliptin (BI-1356)],112
24,CCN(CC)CCOCCOC(=O)C1(c2ccccc2)CCCC1 [Carbetapentane citrate],102.2 ± 0.32
